According to the supplement of paper PMC2702839:
Counter-ions that a name gives are not always drawn. This is one part of the list.

test system: Schistosoma mansoni schistosomula; assay: phenotypic hit in primary schistosomula screen (any phenotype vs DMSO control) (binary (1 = hit, 0 = no phenotype)); higher = active (phenotype induced); settings: 1 µM; time (d): 7

SMILES	phenotypic hit
NCC(O)CC(=O)O (configuration not stated) [aminohydroxybutyric acid]	inactive: 0
CC(=O)OCC(CCn1cnc2cnc(N)nc21)COC(C)=O [famciclovir]	active: 1
NNc1nncc2ccccc12 [hydralazine hydrochloride]	inactive: 0
CN1CCN(CCCN2c3ccccc3Sc3ccc(Cl)cc32)CC1 [Prochlorperazine dimaleate]	inactive: 0
CC(=O)Oc1cc(OC(C)=O)c2c(c1)O[C@H](c1ccc(OC(C)=O)c(OC(C)=O)c1)[C@H](OC(C)=O)C2 [epicatechin pentaacetate]	inactive: 0
O=C1c2ccccc2C(=O)c2c1ccc(O)c2O [alizarin]	inactive: 0
CC(=O)O[C@H]1CC[C@@]2(C)[C@@H](CC[C@@H]3[C@@H]2CC(=O)[C@]2(C)[C@@H]4[C@H](C[C@@H]32)O[C@]2(CC[C@@H](C)CO2)[C@H]4C)C1 [hecogenin acetate]	inactive: 0
COC(=O)/C=C/C(C)=C\C=C\C(C)=C\C=C\C=C(C)\C=C\C=C(C)\C=C\C(=O)O [bixin]	inactive: 0
O=c1oc2ccccc2c(O)c1Cc1c(O)c2ccccc2oc1=O [dicumarol]	inactive: 0
CCc1cn([C@H]2C[C@H](O)[C@@H](CO)O2)c(=O)[nH]c1=O [edoxudine]	inactive: 0
C[C@@H]1O[C@@H](O[C@H]2[C@H](Oc3cc(O)c4c(=O)cc(-c5ccc(O)cc5)oc4c3)O[C@H](CO)[C@@H](O)[C@@H]2O)[C@H](O)[C@H](O)[C@H]1O [rhoifolin]	inactive: 0
Cc1c(N(C)CS(=O)(=O)O)c(=O)n(-c2ccccc2)n1C [dipyrone]	inactive: 0
NCCCCC(N)C(=O)NC(Cc1c[nH]c2ccccc12)C(=O)NC(CCCCN)C(=O)O (configuration not stated) [lysyltryptophanyl-lysine acetate]	inactive: 0
CC(NCCC(c1ccccc1)c1ccccc1)c1ccccc1 (configuration not stated) [fendiline hydrochloride]	inactive: 0
CC(=O)[C@H]1CC[C@H]2[C@@H]3CC(=O)C4=CC(=O)CC[C@]4(C)[C@H]3CC[C@]12C [6-oxoprogesterone]	inactive: 0
CC1(C)OC(=O)NC1=O [dimethadione]	inactive: 0
Nc1ccc(C(=O)NCC(=O)O)cc1 [aminohippuric acid]	inactive: 0
COc1ccc(NS(=O)(=O)c2ccc(N)cc2)nn1 [sulfamethoxypyridazine]	inactive: 0
Cn1nnnc1SCC1=C(C(=O)O)N2C(=O)[C@@H](NC(=O)[C@H](O)c3ccccc3)[C@H]2SC1 [cefamandole sodium]	inactive: 0
CCC[C@H](N[C@@H](C)C(=O)N1[C@H](C(=O)O)C[C@@H]2CCCC[C@@H]21)C(=O)OCC [perindopril erbumine]	inactive: 0
OCCN1CCN(CCCN2c3ccccc3Sc3ccc(Cl)cc32)CC1 [perphenazine]	inactive: 0
Nc1ccc(S(=O)(=O)c2ccc(N)cc2)cc1 [dapsone]	inactive: 0
OC[C@H]1O[C@@H](Oc2ccc(O)cc2)[C@H](O)[C@@H](O)[C@@H]1O [arbutin]	inactive: 0

SMILES	phenotypic hit
COc1cc(/C=C/C(=O)O)cc(OC)c1OC [sinapic acid methyl ether]	inactive: 0
CC(=O)OCC(=O)[C@@]1(O)CCC2C3CC[C@@H]4C[C@H](OC(C)=O)CC[C@]4(C)C3C(=O)C[C@@]21C (some centres not stated) [tetrahydrocortisone-3,21-diacetate]	inactive: 0
N[C@H]1C(O)O[C@H](CO)[C@@H](O)[C@@H]1O (some centres not stated) [glucosamine hydrochloride]	inactive: 0
COC(=O)C1=CO[C@@H](O[C@@H]2O[C@H](CO)[C@@H](O)[C@H](O)[C@H]2O)[C@@H]2[C@@H](C)[C@@H](O)C[C@H]12 [loganin]	inactive: 0
NC(C(=O)O)C(O)C(=O)O (stereo not drawn) [d,l-threo-3-hydroxyaspartic acid]	inactive: 0
CC(=O)Oc1cccc2c1C(=O)c1c(OC(C)=O)cc(C(=O)O)cc1C2=O [diacerin]	inactive: 0
N=C(N)NCCC[C@@H](NC(=O)[C@@H](N)Cc1ccc(O)cc1)C(=O)O [d[-arg-2]kyotorphan acetate]	inactive: 0
NC(=O)N/N=C/c1ccc([N+](=O)[O-])o1 [nitrofurazone]	inactive: 0
COc1c(C2COc3cc4c(cc3C2=O)CC(O)C(C)(C)O4)ccc2c1CCC(C)(C)O2 (configuration not stated) [dihydromundulone]	inactive: 0
CN(C)CCC[C@@]1(c2ccc(F)cc2)OCc2cc(C#N)ccc21 [escitalopram oxalate]	inactive: 0
CC(=O)N[C@@H](CCC(=O)O)C(=O)O [acetylglutamic acid]	inactive: 0
CCCC(=O)Nc1ncnc2c1ncn2[C@@H]1O[C@@H]2COP(=O)(O)O[C@H]2[C@H]1OC(=O)CCC [bucladesine]	inactive: 0
CC(=O)O[C@H]1CC[C@]2(C)C3=CC(=O)[C@@]4(C)C(C[C@@H]5OC6(OCC(C)CC6Br)[C@@H](C)[C@@H]54)C3CC[C@H]2C1 (stereo partly drawn) [3beta-acetoxy-23-bromo-isoallospirost-9 (11)-ene-12-one]	inactive: 0
CC(=O)Oc1cccc(O)c1 [resorcinol monoacetate]	inactive: 0
CCN1CCN(C(=O)N[C@@H](C(=O)N[C@@H]2C(=O)N3[C@@H]2SC(C)(C)[C@@H]3C(=O)O)c2ccccc2)C(=O)C1=O [piperacillin sodium]	inactive: 0
C/C1=C\CCC(=O)C2CC(C)(C)C2CC1 (configuration not stated) [15-norcaryophyllen-3-one]	inactive: 0
CO[C@@H]1[C@@H](OC(N)=O)[C@@H](O)[C@H](Oc2ccc3c(O)c(NC(=O)c4ccc(O)c(CC=C(C)C)c4)c(=O)oc3c2C)OC1(C)C [novobiocin sodium]	inactive: 0
O=C(NCO)c1cccnc1 [n-hydroxymethylnicotinamide]	inactive: 0
CC(C)CCC[C@@H](C)[C@H]1CC[C@H]2[C@@H]3CC=C4CC(=O)CC[C@]4(C)[C@H]3CC[C@]12C [cholest-5-en-3-one]	inactive: 0
CCN(Cc1ccncc1)C(=O)C(CO)c1ccccc1 (configuration not stated) [Tropicamide]	inactive: 0
Cc1ncc([N+](=O)[O-])n1CCO [metronidazole]	inactive: 0
COC(=O)C[C@H]1C(C)(C)C(OC(C)=O)[C@]2(O)C=C3C4CC(=O)O[C@@H](c5ccoc5)[C@]4(C)CCC3[C@@]1(C)C2=O (some centres not stated) [humilin a]	inactive: 0
CC(=O)OC1CCC23CC1(C)CCC2C(C)(C)CC3OC(C)=O (configuration not stated) [clovanediol diacetate]	inactive: 0

SMILES	phenotypic hit
COc1ccc2[nH]cc(CCNC(C)=O)c2c1 [Melatonin]	inactive: 0
C=C(C)C1Cc2c(ccc(C(=O)O)c2O)O1 (configuration not stated) [tubaic acid]	inactive: 0
O=C([O-])c1ccccc1O.[Na+] [sodium salicylate]	inactive: 0
NC[C@H]1O[C@H](O[C@H]2[C@H](O[C@@H]3O[C@H](CO)[C@@H](O)[C@H]3O)[C@@H](O)[C@H](N)C[C@@H]2N)[C@H](N)[C@@H](O)[C@@H]1O [ribostamycin sulfate]	active: 1
COc1cc2nc(N3CCN(C(=O)c4ccco4)CC3)nc(N)c2cc1OC [prazosin hydrochloride]	active: 1
CCn1cc(C(=O)O)c(=O)c2cnc(N3CCNCC3)nc21 [pipemidic acid]	inactive: 0
CC(=O)Oc1ccc2c(c1C(C)C)CCC1C(C)(C)CCC[C@]21C (some centres not stated) [totarol acetate]	inactive: 0
CC(=O)N[C@@H](CC(=O)N[C@@H](CCC(=O)O)C(=O)O)C(=O)O [spaglumic acid]	inactive: 0
COc1ccc(-c2cc(=O)c3c(O)cc(O)cc3o2)cc1 [acacetin]	inactive: 0
Cc1ccc(S(=O)(=O)NC(=O)NN2CC3CCCC3C2)cc1 (configuration not stated) [gliclazide]	inactive: 0
O=c1c(O)cccc2cc(O)c(O)c(O)c12 [purpurogallin]	inactive: 0
O=C(O)c1cc2ccccc2[nH]1 [indole-2-carboxylic acid]	inactive: 0
O=c1c(O)c(-c2cc(O)c(O)c(O)c2)oc2cc(O)cc(O)c12 [myricetin]	inactive: 0
Nc1nc(=O)c2[nH]c(=O)cnc2[nH]1 [xanthopterin]	inactive: 0
CC(=O)O[C@H]1CC[C@@]2(C)[C@H](CC[C@@H]3[C@@H]2CC[C@]2(C)[C@@H]4[C@H](C[C@@H]32)O[C@]2(CC[C@@H](C)CO2)[C@H]4C)C1 [smilagenin acetate]	inactive: 0
C#CCN(C)Cc1ccccc1 [Pargyline hydrochloride]	active: 1
COC(=O)[C@]1(C)CCC[C@]2(C)c3ccc(C(C)C)cc3C(=O)CC12 (some centres not stated) [7-oxocallitrisic acid, methyl ester]	inactive: 0
C[C@H]1[C@@H](O)O[C@@H]2O[C@@]3(C)CC[C@H]4[C@H](C)CC[C@@H]1[C@@]24OO3 [dihydroartemisinin]	inactive: 0
CCn1cc(C(=O)O)c(=O)c2ccc(C)nc21 [nalidixic acid]	inactive: 0
CCOc1ccc(C(=O)c2cc(O)c(OC)c(OC)c2O)cc1 [2,4-dihydroxy-3,4-dimethoxy-4'-ethoxybenzophenone]	inactive: 0
O=C(O)CCC(=O)OC[C@@H](NC(=O)C(Cl)Cl)[C@H](O)c1ccc([N+](=O)[O-])cc1 [chloramphenicol hemisuccinate]	inactive: 0
